In paper PMC12136788:
The other results are listed elsewhere or left out.

B1: 90661419_90661539_1048_CDS_ENSG00000112182_ENST00000537989|human|control|control (ssRNA)
RNA: GGGAGUUCUACAGUCCGACGAUCGUUCAGGAGCUGGGUCUGCAGGAAGCUGAAGCAGGAGUCCUCCAGGUUGUGCAUGCGCAGGAACUCAGCACAGCGGAUGACCUCGCGGAUGUUUUCUCUGCUGAGUAACAGCUUGGCAGUCAACAGAGGAUUGAGCAUCA
B2: 120833781_120834319_905_CDS_ENSMUSG00000025162_ENSMUST00000018274|mouse|control|control (ssRNA)
RNA: GGGAGUUCUACAGUCCGACGAUCCCCCUGCCAGGGGAGAGAGCCCAGGUUGAAGUACAUCAGCACGUACCCCAGAGACUCCAAGUCAUCCCUUCGAGAUUGUUCAAUGCCAAGGUGCGUGUUGAUGGAGGCAUAGCGUGCUGUCAACAGAGGAUUGAGCAUCA
B3: chr12:48362563:48362564:+_ENSG00000134291_ENST00000256686|hu_hu|hu_hu_hu_mus_False|48_88 (ssRNA)
RNA: GGGAGUUCUACAGUCCGACGAUCUCCGUCAAGCCCUUCGAUAGACCCAUAGACUCUAAACUGUAAUCACUUUGUAUGGGGAAGGAAAAAAAAAGCCAAAAACUUUCCAAAAAGCGGGGGUGGGGUGAGGCGGGAGGGGGAGGUCAACAGAGGAUUGAGCAUCA
B4: chr3:10015032:10015033:+_ENSMUSG00000027533_ENSMUST00000029046|mus_mus|mus_mus_mus_hu_True|8_98 (ssRNA)
RNA: GGGAGUUCUACAGUCCGACGAUCGUUUUUACCAUCACACGUAAUGAUACAAUCUGGCUUGGCCAUUGCGCCCAUUUUUCGCAAAGCUAUUCCCACUCCUAGCUCCUUCAUGUAUUCAUCAAAGCCUUGGCUUUCCACCAGGCGCAACAGAGGAUUGAGCAUCA
B5: chrX:114877694:114877695:+_ENSG00000102024_ENST00000355899|hu_hu|motif|central (ssRNA)
RNA: GGGAGUUCUACAGUCCGACGAUCGUUGAGUUUGGGGUUUCCACUGACAACAUCAGCAGGGGUAACAAACUGUCUGCAACCGGAUUUAUCUGCUUGUUGAAGCAUACUCUCAGCUCUCUUCAAAUCAUCUGUUUCAUUGAAACCCAACAGAGGAUUGAGCAUCA
B6: chr2:198351390:198351391:-_ENSG00000144381_ENST00000345042|hu_hu|hu_hu_hu_mus_False|78_88 (ssRNA)
RNA: GGGAGUUCUACAGUCCGACGAUCUCAUUCCCACCCUCCACAGAAAGGCUGCUUAACUUCUCAUCUGUGGUGACACAGCGCUACAGUCCUGAUGCUCACAGAACAGUAGAGAUGCCUCAGUGAUUUAAGUUGAAAGCAGGACACCAACAGAGGAUUGAGCAUCA
B7: chr17:45747064:45747065:+_ENSG00000108424_ENST00000290158|hu_hu|hu_hu_hu_mus_True|58_108 (ssRNA)
RNA: GGGAGUUCUACAGUCCGACGAUCGCCUACAGUCCAUGCUGUUGUGUCUCGAACAACUACACUGGGGUCUUUCAUUAAUUCUAUUAGGGUGGGCAUAGCCUGUAUGACUAAUGGUUUCAGUUGAUUAGGCUCUGGUCCUUCCAACAACAGAGGAUUGAGCAUCA
B8: chr5:153406784:153406785:-_ENSG00000055147_ENST00000520667|hu_mus|FALSE|FALSE (ssRNA)
RNA: GGGAGUUCUACAGUCCGACGAUCUUUCACCUUUAUCUCACUUUCUCGGGAAAGCAUCUCCAGAGCUUCUAGAUGUGAAAGGCCUUGAAACUCAUCAAAGAGUAGCCCAUAAUGAGUUUUCUUGUCUGUUUCCAUGGUUACUUCCAACAGAGGAUUGAGCAUCA
B9: chr1:130485734:130485735:-_ENSMUSG00000045382_ENSMUST00000052172|mus_mus|FALSE|FALSE (ssRNA)
RNA: GGGAGUUCUACAGUCCGACGAUCGAUGAAGGAGUCGAUGCUGAUCCCCACAUAAUAUGGCAGCCAGCAGGCAAAGAAAGCUAGGAUGAGGAUGACUGUCGUCUUGAGGGCCUUGCGCUUCUGGUGGCCCUUGGAGUGUGACAGCAACAGAGGAUUGAGCAUCA
B10: chr6:32537486:32537487:-_ENSMUSG00000029765_ENSMUST00000115096|mus_mus|FALSE|FALSE (ssRNA)
RNA: GGGAGUUCUACAGUCCGACGAUCCCCAGCCCCGAACGCAAAUACUCCACCGAGGCACGGGGAAGCCACGAGCAGCAGAGAAAAACGGAGGGGGCCAAAUCAGAGCCUGCCGGGCUUGACAGCUCCUCUUGCAGCGUCCAAGGUCAACAGAGGAUUGAGCAUCA
B11: chr3:150285740:150285741:+_ENSG00000144895_ENST00000460851|hu_hu|FALSE|FALSE (ssRNA)
RNA: GGGAGUUCUACAGUCCGACGAUCAGCUUUUUUAUUCCACAGCAUUGUAACUUUAUCUGCCUUAAAGAAACUUUUAUUAGCUAAAGCUGCAUGAGGUCCAGCAAAGUUGGGGUACUGAUAUAAUCUAACAAAUGAAGGUGCACCCAACAGAGGAUUGAGCAUCA
B12: chr1:29069144:29069145:+_ENSG00000198492_ENST00000541996|perfect_dup|FALSE|FALSE (ssRNA)
RNA: GGGAGUUCUACAGUCCGACGAUCUGAGAAGUCAAUCCCACUGGGAAAGAAAUUAAAACCAUGCUGACCAAGAAAUGGAGUGCUACCUAGGGCUCCUGGUUGCCCAAACAUUGCAUCUGGUAGGAAGUGGGGCUCUCCGUUGCUCAACAGAGGAUUGAGCAUCA
B13: chr6:35489678:35489679:-_ENSMUSG00000029840_ENSMUST00000031866|mus_mus|FALSE|FALSE (ssRNA)
RNA: GGGAGUUCUACAGUCCGACGAUCGUGGGCCGGCGGGCCGGGCAGGAGCGGCGAUUAGGCCCGACGAGGGGACACGAGAAAGCGACGCGCCUCAGGCCGCUGAGCGGGCGAGACUGCGGGUCGCGGCUACGGUUCGGGCGGGAGCAACAGAGGAUUGAGCAUCA
B14: chr3:185639903:185639904:-_ENSG00000136527_ENST00000456380|hu_mus|FALSE|FALSE (ssRNA)
RNA: GGGAGUUCUACAGUCCGACGAUCUGUUAUAGAGAAAUCGACUCUAAUUCGACGCCCAUCAAGCUCCAUUCCAUUGGCACGUUCUUUAGCUUCCUUGGCAUCGUCUACAUUUUCAAAAUAUACAAAGGCAAAUCCUCUUGAACGCAACAGAGGAUUGAGCAUCA
B15: chr7:99638656:99638657:+_ENSG00000106261_ENST00000324306|hu_hu|FALSE|FALSE (ssRNA)
RNA: GGGAGUUCUACAGUCCGACGAUCAGCCCUCUAUAUAGAUUUAGGCUUAUGCUGACCUCGUUGUAAAAUCUGUAUUUAACUAAAAGUUAAUAAAAAUACAUAUGUUCAUUUUAAAAUAAUUACUGAUUUUGCUUGGCUAUCCCACAACAGAGGAUUGAGCAUCA
B16: chr4:107938938:107938939:-_ENSMUSG00000034636_ENSMUST00000043616|mus_hu|FALSE|FALSE (ssRNA)
RNA: GGGAGUUCUACAGUCCGACGAUCCCGGCUGAAGCAGCGCUCGUAAGGAUCCUCGAGGGAGAGAGUUAAUGAAUUCAGCACCAGGCACUGGAGAUUCUGCUGGAUCCAUUUGUUACUGCCAAGCCCACUGAUAAUGUCUGUAAUCAACAGAGGAUUGAGCAUCA
B17: chr5:128440902:128440903:+_ENSG00000066583_ENST00000173527|hu_mus|hu_hu_hu_mus_True|18_78 (ssRNA)
RNA: GGGAGUUCUACAGUCCGACGAUCUUGAACGGUGCUGCCAAGUCCUUUGGGGUAUUGUUCUGUUACAAUAACUGGAAUCCCUAAGAUCCGAGCUCCUUGCAACAGUCUCUGUCCCACGCUAAUAAUAUCCCCAAAGUAUUUGAUCAACAGAGGAUUGAGCAUCA
B18: chr12:48459454:48459455:-_ENSG00000079387_ENST00000551330|hu_mus|FALSE|FALSE (ssRNA)
RNA: GGGAGUUCUACAGUCCGACGAUCUGCUUUCUGCUCUUCAAUCCGGCGCAAUCUUUCCCGAGCUCGAGAGUCAUAAACGCUAGUUAAUUCUUUGAUCCAUAGCUCUGCCUGGAAGAACGUAGGGCUGGAAGCUGGAGUCUGAGACAACAGAGGAUUGAGCAUCA
B19: chr6:38652254:38652255:-_ENSG00000124767_ENST00000373365|hu_hu|hu_hu_hu_mus_False|88_98 (ssRNA)
RNA: GGGAGUUCUACAGUCCGACGAUCCGAGAACUUCAUAAUGGGAAAAUCACAUUUUUGCAGGAGGGUCAGUCCAAGAACCCUCGUAUAAAAAUCCAGGGACUUCUUAGGAUCCUUAAUUCUUAGCAUCGUUUGCUGCAGUAGAAACAACAGAGGAUUGAGCAUCA
B20: 91031602_91031722_1189_3pUTR_ENSMUSG00000070462_ENSMUST00000094216|mouse|control|control (ssRNA)
RNA: GGGAGUUCUACAGUCCGACGAUCCUUGCCCUUGCAGUGAUCACAGAUAGAUACCAGCCUCUUCCGCGGCUGCGAGCUGGCCCCGCCGACGGCGCUCCCAGGAGCCGGAGAAGCCGCCUCGCCAGUGGGCUUCCCGGCGCUGCCCAACAGAGGAUUGAGCAUCA
B21: chr18:67943652:67943653:+_ENSMUSG00000079614_ENSMUST00000025421|mus_hu|motif|central (ssRNA)
RNA: GGGAGUUCUACAGUCCGACGAUCAGUUGUCCUUUUAACCCAGUGGCUCUGUCCUCGCAGUUUAUCAUUUGAUUCUCCGGCGGUUUCUUCCCAUACAGCAGCUGUUCGGUCAAAAGAACAGGAAGCCAAAACCUGCCCAAAUUCCAACAGAGGAUUGAGCAUCA
B22: chr11:115359187:115359188:-_ENSMUSG00000020737_ENSMUST00000021083|mus_hu|FALSE|FALSE (ssRNA)
RNA: GGGAGUUCUACAGUCCGACGAUCACAUCUGGAACCAAAUUAUUUCUUCUUAAAAACACAGUACUAAGUGUCACAAAGCUUUCCCUCCAAUCUACUACUAGAAAACACUCAUGCCAUGGCCCACAGACCCAAGAGUCAAGGACACAACAGAGGAUUGAGCAUCA

Target: T1, UNK ZnF1-3 (human, UniProt Q9C0B0 31-174)
T1 sequence: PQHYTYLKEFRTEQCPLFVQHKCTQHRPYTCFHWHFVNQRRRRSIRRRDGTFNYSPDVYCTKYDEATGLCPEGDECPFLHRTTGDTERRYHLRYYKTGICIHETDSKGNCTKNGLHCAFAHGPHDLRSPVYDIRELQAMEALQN
Test: nsRBNS (natural sequence RNA bind-n-seq); RBNS binding buffer (assumed for nsRBNS): 25 mM Tris pH 7.5, 150 mM KCl, 3 mM MgCl2, 0.01% Triton X-100, 500 ug/ml BSA, 20 U/ml SUPERase-In, 4 C; UNK is unkempt and MSI1 is Musashi-1; names of the RNAs are library labels; protein concentration not given here; high values mean tight binding

| Binder | binding signal |
| --- | --- |
| B1 | 0.964 enrichment R |
| B2 | 0.906 enrichment R |
| B3 | 2.48 enrichment R |
| B4 | 0.772 enrichment R |
| B5 | 0.849 enrichment R |
| B6 | 1.39 enrichment R |
| B7 | 0.768 enrichment R |
| B8 | 0.848 enrichment R |
| B9 | 0.997 enrichment R |
| B10 | 1.16 enrichment R |
| B11 | 1.73 enrichment R |
| B12 | 1.18 enrichment R |
| B13 | 1.32 enrichment R |
| B14 | 0.503 enrichment R |
| B15 | 2.18 enrichment R |
| B16 | 1.11 enrichment R |
| B17 | 0.509 enrichment R |
| B18 | 0.953 enrichment R |
| B19 | 1.07 enrichment R |
| B20 | 0.846 enrichment R |
| B21 | 1.42 enrichment R |
| B22 | 1.56 enrichment R |
